Source: the supplement of paper PMC11417369
± gives the standard deviation of the averaged measurements. Some of the results follow.

Test system: PfAP2-I AP2 domain 3 (GST-tagged)
Test: gcPBM binding intensity (ln(normalized median fluorescence intensity)); higher = stronger DNA binding
Procedure, shortened: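 GST-tagged P. falciparum DNA-binding domains, expressed in E. coli (about 25 μg on average), were applied for 1 h to an Agilent 4 × 180k array of primer-extended double-stranded 36-bp intergenic genomic probes plus negative controls. The binding buffer was 1× PBS with 1% milk, 0.2 mg/ml BSA, 0.5% salmon testes DNA and 0.03% Triton X-100. Bound protein was detected with Alexa488 anti-GST antibody and scanned at 488 nm. Binding intensity is the highest Masliner-normalised natural-log median intensity across replicate spots of either probe orientation.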

“TTTTTCATAAAAAAATAAAAAAAATTAACATAGAAA [XGTACX_negctrl_site11]” and “TTTTAGAGTGGTATATATTAATTTTTAATAAAAAAA [CACACA_negctrl_site1652]” are within error of each other in “gcPBM binding intensity (ln)” value: 7.33 ± 0.79 for the first, 7.92 ± 0.3 for the second.

Compared with “AATAAAAGAAGACAGAGTACACAGGTTGTATTTTCC [XGTACX_site7208]”, “TGTGCATAAATTTATGCACACATAAAAAAAAAAAAA [CACACA_site8954]” is higher in “gcPBM binding intensity (ln)” value: 7.7 ± 0.69 for the first, 11.5 ± 0.93 for the second.

First: ATAGTATCTGGTAGCTGTACGAGTCGTAGAGTGTAG [XGTACX_site2030]
Second: TATGTATTTTTTAAGTGTACCTATATATATATATAT [XGTACX_site7934]
The “gcPBM binding intensity (ln)” value of the first is lower: 8.26 ± 0.62 for the first, 9.22 ± 0.071 for the second.

“TGGGAAGGGTGGGAAACTTTATCAAAAACTTATTAC [GTGCAC_negctrl_site16]” and “TATAATAATAATTATTGTACGATTAGGTTAATTCAT [XGTACX_site1984]” are within error of each other in “gcPBM binding intensity (ln)” value: 8.23 ± 0.57 for the first, 7.79 ± 0.44 for the second.

“AGAAAGGTGGTATTAAAAGAATAACCTATGAATAAA [GTGCAC_negctrl_site325]” and “AAAAAATTATACCTTTGTACATAAATAAAATATTAT [XGTACX_site418]” are within error of each other in “gcPBM binding intensity (ln)” value: 7.86 ± 0.43 for the first, 7.55 ± 0.45 for the second.

Compared with “ACCCATTGCTCACGTGCACACATAGAAAAATAATTC [CACACA_site4389]”, “ATAACATAAGGAAATACACACATATATAAGTATATA [CACACA_site778]” is lower in “gcPBM binding intensity (ln)” value: 10.7 ± 0.16 for the first, 7.66 ± 0.45 for the second.

“TATGTATATATTTACGCATGCTACTCTATTTTGAGA [TGCATGCA_site990]” and “AGGTTTCATTTAGCATGTACATATTATAAAAATTGT [XGTACX_site8448]” are within error of each other in “gcPBM binding intensity (ln)” value: 7.64 ± 0.48 for the first, 8.01 ± 0.59 for the second.

Going from “AAGATTACTTATATATGTACACATAATACAAATGTC [XGTACX_site520]” to “TCTGTTAATATTTATACACACATATATATATATATA [CACACA_site1139]”, the “gcPBM binding intensity (ln)” value rises from 7.95 ± 0.47 to 9.36 ± 0.54.

“CATATATATTTGTTCACACACACACTAATAAAAAAA [CACACA_site8787]” and “TGGAGGAACCTCATATGTACGTATAAATATATATTT [XGTACX_site5603]” are within error of each other in “gcPBM binding intensity (ln)” value: 8.09 ± 0.33 for the first, 7.75 ± 0.46 for the second.

Compared with “TTAAAGCACCCATGCACACACACAAAGGAAAAGAAA [CACACA_site233]”, “TGATAAATTAAAAATTGTACTATTATAATAATATAT [XGTACX_site6615]” is lower in “gcPBM binding intensity (ln)” value: 11.1 ± 0.93 for the first, 7.5 ± 0.34 for the second.

“TTTATATAAATTTATTCACACAACTAATTTTTTAAA [CACACA_site4848]” and “ATCAAATAGAGACACACACACCTAAACATAAAAGAA [CACACA_site7321]” are within error of each other in “gcPBM binding intensity (ln)” value: 7.53 ± 0.61 for the first, 8.07 ± 0.64 for the second.

“ACAATAAACATATATACACACACAAAAAAAAAAACA [CACACA_site8033]” and “ATTTATTAATATCCCAGTACTCATGGGGAATAATGA [XGTACX_site4014]” are within error of each other in “gcPBM binding intensity (ln)” value: 7.81 ± 0.35 for the first, 7.66 ± 0.46 for the second.

“TTGTGTAAAGGTATTATTGTATTATTCAAAATAAAA [XGTACX_negctrl_site167]” and “AATATATAATATATATGTACTTATATATAAAAGATA [XGTACX_site7635]” are within error of each other in “gcPBM binding intensity (ln)” value: 7.64 ± 0.38 for the first, 7.8 ± 0.21 for the second.

“AATATAAACAAACACACACACATATATATATATATT [CACACA_site5592]” and “ATAAAAAAAGGACACACACACATATATTTATTTATA [CACACA_site7438]” are within error of each other in “gcPBM binding intensity (ln)” value: 7.79 ± 0.46 for the first, 7.89 ± 0.31 for the second.

“AAAAAAAAAAAAAATAGTACAATACCCAAATATAAC [XGTACX_site6684]” and “ATGTCATATAATAGTACACACATGAAAATATAAATA [CACACA_site3215]” are within error of each other in “gcPBM binding intensity (ln)” value: 8.26 ± 0.38 for the first, 8.07 ± 0.3 for the second.

“GGTAGGGATTATACCACACACACATACACATAAATA [CACACA_site3179]” and “ACTATTAAAATGAATACACACAAATATAAAAATATA [CACACA_site4145]” are within error of each other in “gcPBM binding intensity (ln)” value: 8 ± 0.35 for the first, 7.71 ± 0.25 for the second.

Compared with “ACGCTACATAAATACGTGCACATCTTTTTGTGTATA [GTGCAC_site9675]”, “CATCTTATATAATCATGTACATATAGAGACTTCTTT [XGTACX_site7685]” is lower in “gcPBM binding intensity (ln)” value: 10.8 ± 0.15 for the first, 7.74 ± 0.47 for the second.

Going from “GGGGGAATTTACATGGGTACACATGTATTAAAAAAT [XGTACX_site4130]” to “TTTTTCTTACATGAGTGTACACACTTTTTTTCAGAA [XGTACX_site138]”, the “gcPBM binding intensity (ln)” value falls from 8.995 ± 0.049 to 8.475 ± 0.035.

First: TTATATGTATGGAGGTTTTTGTATATAGATATATAG [CACACA_negctrl_site177]
Second: AAAAAAAAATTATTCACACATATATATATATATATA [CACACA_site5579]
The “gcPBM binding intensity (ln)” value of the first is lower: 7.65 ± 0.54 for the first, 9.43 ± 0.29 for the second.

Going from “GAACCATAAGGAACGACACACAAAGATAAATAAATA [CACACA_site3472]” to “AAAAATAAAAAAAGCACACACATATATATATATATA [CACACA_site1885]”, the “gcPBM binding intensity (ln)” value rises from 7.61 ± 0.48 to 9.76 ± 0.33.

Going from “ATAATATTTTAATGCACACACACAAAAAAAAAAAAA [CACACA_site2891]” to “AAATTTGCTTTTATTTTACACACTTGCTCCTGTTGT [CACACA_site8276]”, the “gcPBM binding intensity (ln)” value falls from 11.2 ± 0.61 to 8.07 ± 0.92.

“AAACAATCTAAAAGTAGTACAATAAAAATATATATA [XGTACX_site5607]” and “CGATACTTTAGGTGTACACAAATATACATGAATGAG [CACACA_site5189]” are within error of each other in “gcPBM binding intensity (ln)” value: 8.08 ± 0.57 for the first, 8.51 ± 0.43 for the second.
